Test results published in patent US9284335B2, “Substituted pyrido[3,2-e][1,2,4]triazolo[1,5-c]pyrimidines, pyrido[2,3-e][1,2,4]triazolo[1,5-c]pyrimidines and/or [1,2,4]triazolo[1,5-c]pteridines for treatment of central nervous system diseases and disorders” (DART NEUROSCIENCE (CAYMAN) LTD., priority 2012, dated 2016).

What follows are molecules tested against full-length recombinant NH-terminal GST tagged human PDE1b enzyme (Homo sapiens, UniProt Q01064) (assay: PDE1b inhibitory assay (IMAP TR-FRET)). Conditions: negative log of half-maximal molar inhibitory concentration; FAM-cAMP 200 nM; reported as bins; read-out: PDE1b (pEC50) (converted).
Type: biochemical

| SMILES | EC50 [nM] |
| --- | --- |
| COc1ccc(Cn2c(=O)n3ncnc3c3ccc(CNCC4(C)COC4)nc32)cc1 [Example 74, 6-(4-Methoxybenzyl)-8-((((3-methyloxetan-3-yl)methyl)amino)methyl)pyrido[3,2-e][1,2,4]triazolo[1,5-c]pyrimidin-5(6H)-one] | 1000 to 10000 |
| COc1ccc(Cn2c(=O)n3ncnc3c3ccc(CN(C)CC4CCOC4)nc32)cc1 (centres unmarked) [Example 75, 6-(4-Methoxybenzyl)-8-((methyl((THF-3-yl)methyl)amino)methyl)pyrido[3,2-e][1,2,4]triazolo[1,5-c]pyrimidin-5(6H)-one] | 100 to 1000 |
| COc1ccc(Cn2c(=O)n3ncnc3c3ccc(CN(C)C4CC4)nc32)cc1 [Example 76, 8-((Cyclopropyl(methyl)amino)methyl)-6-(4-methoxybenzyl)pyrido[3,2-e][1,2,4]triazolo[1,5-c]pyrimidin-5(6H)-one] | 100 to 1000 |
| COc1ccc(Cn2c(=O)n3ncnc3c3ccc(CN4CCN(S(C)(=O)=O)CC4)nc32)cc1 [Example 77, 6-(4-Methoxybenzyl)-8-((4-(methylsulfonyl)piperazin-1-yl)methyl)pyrido[3,2-e][1,2,4]triazolo[1,5-c]pyrimidin-5(6H)-one] | 100 to 1000 |
| COc1ccc(Cn2c(=O)n3ncnc3c3ccc(CNCc4ccccc4)nc32)cc1 [Example 78, 8-((Benzylamino)methyl)-6-(4-methoxybenzyl)pyrido[3,2-e][1,2,4]triazolo[1,5-c]pyrimidin-5(6H)-one] | 100 to 1000 |
| COc1ccc(Cn2c(=O)n3ncnc3c3ccc(CNc4ccccc4)nc32)cc1 [Example 79, 6-(4-Methoxybenzyl)-8-((phenylamino)methyl)pyrido[3,2-e][1,2,4]triazolo[1,5-c]pyrimidin-5(6H)-one] | 100 to 1000 |
| COc1ccc(Cn2c(=O)n3ncnc3c3ccc(CN4Cc5ccccc5C4)nc32)cc1 [Example 80, 8-(Isoindolin-2-ylmethyl)-6-(4-methoxybenzyl)pyrido[3,2-e][1,2,4]triazolo[1,5-c]pyrimidin-5(6H)-one] | 100 to 1000 |
| COc1ccc(Cn2c(=O)n3ncnc3c3cc(C(C)=O)cnc32)cc1 [Example 81, 9-Acetyl-6-(4-methoxybenzyl)pyrido[3,2-e][1,2,4]triazolo[1,5-c]pyrimidin-5(6H)-one] | 100 to 1000 |
| COc1ccc(Cn2c(=O)n3ncnc3c3cc(C(C)N4C[C@@H](C)O[C@@H](C)C4)cnc32)cc1 (stereo partly drawn) [Example 82, 9-(1-((2S,6R)-2,6-Dimethylmorpholino)ethyl)-6-(4-methoxybenzyl)pyrido[3,2-e][1,2,4]triazolo[1,5-c]pyrimidin-5(6H)-one] | < 100 |
| COc1ccc(Cn2c(=O)n3ncnc3c3cc(C(O)CN4CCOCC4)cnc32)cc1 (centres unmarked) [Example 83, 9-(1-Hydroxy-2-morpholinoethyl)-6-(4-methoxybenzyl)pyrido[3,2-e][1,2,4]triazolo[1,5-c]pyrimidin-5(6H)-one] | 100 to 1000 |
| COc1ccc(Cn2c(=O)n3ncnc3c3cc(C(O)CN4C[C@@H](C)O[C@@H](C)C4)cnc32)cc1 (stereo partly drawn) [Example 84, 9-(2-((2S,6R)-2,6-Dimethylmorpholino)-1-hydroxyethyl)-6-(4-methoxybenzyl)pyrido[3,2-e][1,2,4]triazolo[1,5-c]pyrimidin-5(6H)-one] | < 100 |
| COc1ccc(Cn2c(=O)n3ncnc3c3cc(C(F)CN4CCOCC4)cnc32)cc1 (centres unmarked) [Example 85, 9-(1-Fluoro-2-morpholinoethyl)-6-(4-methoxybenzyl)pyrido[3,2-e][1,2,4]triazolo[1,5-c]pyrimidin-5(6H)-one] | 100 to 1000 |
| COc1ccc(Cn2c(=O)n3ncnc3c3cc(C(F)CN4C[C@@H](C)O[C@@H](C)C4)cnc32)cc1 (stereo partly drawn) [Example 86, 9-(2-((2S,6R)-2,6-Dimethylmorpholino)-1-fluoroethyl)-6-(4-methoxybenzyl)pyrido[3,2-e][1,2,4]triazolo[1,5-c]pyrimidin-5(6H)-one] | < 100 |
| COc1ccc(Cn2c(=O)n3ncnc3c3cc(C(O)C(F)(F)F)cnc32)cc1 (centres unmarked) [Example 87, 6-(4-Methoxybenzyl)-9-(2,2,2-trifluoro-1-hydroxyethyl)pyrido[3,2-e][1,2,4]triazolo[1,5-c]pyrimidin-5(6H)-one] | 100 to 1000 |
| COc1ccc(Cn2c(=O)n3ncnc3c3cc(C(N4CCOCC4)C(F)(F)F)cnc32)cc1 (centres unmarked) [Example 88, 6-(4-Methoxybenzyl)-9-(2,2,2-trifluoro-1-morpholinoethyl)pyrido[3,2-e][1,2,4]triazolo[1,5-c]pyrimidin-5(6H)-one] | < 100 |
| C[C@@H]1CN(Cc2cnc3c(c2)c2ncnn2c(=O)n3Cc2ccc(OC(F)(F)F)cc2)C[C@H](C)O1 [Example 89, 9-(((2S,6R)-2,6-Dimethylmorpholino)methyl)-6-(4-(trifluoromethoxy)benzyl)pyrido[3,2-e][1,2,4]triazolo[1,5-c]pyrimidin-5(6H)-one] | 1000 to 10000 |
| Cc1cc(Cn2c(=O)n3ncnc3c3cc(CN4C[C@@H](C)O[C@@H](C)C4)cnc32)ccc1F [Example 90, 9-(((2S,6R)-2,6-Dimethylmorpholino)methyl)-6-(4-fluoro-3-methylbenzyl)pyrido[3,2-e][1,2,4]triazolo[1,5-c]pyrimidin-5(6H)-one] | 100 to 1000 |
| C[C@@H]1CN(Cc2cnc3c(c2)c2ncnn2c(=O)n3Cc2ccc(F)cc2)C[C@H](C)O1 [Example 91, 9-(((2S,6R)-2,6-Dimethylmorpholino)methyl)-6-(4-fluorobenzyl)pyrido[3,2-e][1,2,4]triazolo[1,5-c]pyrimidin-5(6H)-one] | 100 to 1000 |

| SMILES | EC50 [nM] |
| --- | --- |
| COc1ccc(Cn2c(=O)n3ncnc3c3cc(CN4C[C@@H](C)O[C@@H](C)C4)cnc32)cc1F [Example 92, 9-(((2S,6R)-2,6-Dimethylmorpholino)methyl)-6-(3-fluoro-4-methoxybenzyl)pyrido[3,2-e][1,2,4]triazolo[1,5-c]pyrimidin-5(6H)-one] | 100 to 1000 |
| COc1ccc(Cn2c(=O)n3ncnc3c3cc(CN4C[C@@H](C)O[C@@H](C)C4)cnc32)c(F)c1 [Example 93, 9-(((2S,6R)-2,6-Dimethylmorpholino)methyl)-6-(2-fluoro-4-methoxybenzyl)pyrido[3,2-e][1,2,4]triazolo[1,5-c]pyrimidin-5(6H)-one] | < 100 |
| C[C@@H]1CN(Cc2cnc3c(c2)c2ncnn2c(=O)n3Cc2ccc(F)c(Br)c2)C[C@H](C)O1 [Example 94, 6-(3-Bromo-4-fluorobenzyl)-9-(((2S,6R)-2,6-dimethylmorpholino)methyl)pyrido[3,2-e][1,2,4]triazolo[1,5-c]pyrimidin-5(6H)-one] | 100 to 1000 |
| C[C@@H]1CN(Cc2cnc3c(c2)c2ncnn2c(=O)n3Cc2ccc(C#N)cc2)C[C@H](C)O1 [Example 95, 4-((9-(((2S,6R)-2,6-Dimethylmorpholino)methyl)-5-oxopyrido[3,2-e][1,2,4]triazolo[1,5-c]pyrimidin-6(5H)-yl)methyl)benzonitrile] | > 10000 |
| C[C@@H]1CN(Cc2cnc3c(c2)c2ncnn2c(=O)n3Cc2ccc(C(C)(C)C)cc2)C[C@H](C)O1 [Example 96] | > 10000 |
| C[C@@H]1CN(Cc2cnc3c(c2)c2ncnn2c(=O)n3Cc2cccc(C#N)c2)C[C@H](C)O1 [Example 97, 3-((9-(((2S,6R)-2,6-Dimethylmorpholino)methyl)-5-oxopyrido[3,2-e][1,2,4]triazolo[1,5-c]pyrimidin-6(5H)-yl)methyl)benzonitrile] | > 10000 |
| C[C@@H]1CN(Cc2cnc3c(c2)c2ncnn2c(=O)n3Cc2ccc(S(C)(=O)=O)cc2)C[C@H](C)O1 [Example 98, 9-(((2S,6R)-2,6-Dimethylmorpholino)methyl)-6-(4-(methylsulfonyl)benzyl)pyrido[3,2-e][1,2,4]triazolo[1,5-c]pyrimidin-5(6H)-one] | > 10000 |
| Cc1ccccc1Cn1c(=O)n2ncnc2c2cc(CN3C[C@@H](C)O[C@@H](C)C3)cnc21 [Example 99, 9-(((2S,6R)-2,6-Dimethylmorpholino)methyl)-6-(2-methylbenzyl)pyrido[3,2-e][1,2,4]triazolo[1,5-c]pyrimidin-5(6H)-one] | 1000 to 10000 |
| C[C@@H]1CN(Cc2cnc3c(c2)c2ncnn2c(=O)n3Cc2cccc(I)c2)C[C@H](C)O1 [Example 100, 9-(((2S,6R)-2,6-Dimethylmorpholino)methyl)-6-(3-iodobenzyl)pyrido[3,2-e][1,2,4]triazolo[1,5-c]pyrimidin-5(6H)-one] | 100 to 1000 |
| C[C@@H]1CN(Cc2cnc3c(c2)c2ncnn2c(=O)n3Cc2cc(F)cc(F)c2)C[C@H](C)O1 [Example 101] | 1000 to 10000 |
| COc1ccc(Cn2c(=O)n3ncnc3c3cc(CN4C[C@@H](C)O[C@@H](C)C4)cnc32)c(Br)c1 [Example 102] | 1000 to 10000 |
| COc1cc(F)c(Cn2c(=O)n3ncnc3c3cc(CN4C[C@@H](C)O[C@@H](C)C4)cnc32)c(F)c1 [Example 103, 6-(2,6-Difluoro-4-methoxybenzyl)-9-(((2S,6R)-2,6-dimethylmorpholino)methyl)pyrido[3,2-e][1,2,4]triazolo[1,5-c]pyrimidin-5(6H)-one] | < 100 |
| C[C@@H]1CN(Cc2cnc3c(c2)c2ncnn2c(=O)n3Cc2ccc3cnn(C)c3c2)C[C@H](C)O1 [Example 104, 9-(((2S,6R)-2,6-Dimethylmorpholino)methyl)-6-((1-methyl-1H-indazol-6-yl)methyl)pyrido[3,2-e][1,2,4]triazolo[1,5-c]pyrimidin-5(6H)-one] | > 10000 |
| C[C@@H]1CN(Cc2cnc3c(c2)c2ncnn2c(=O)n3Cc2ccc(-n3cccn3)cc2)C[C@H](C)O1 [Example 105] | > 10000 |
| C[C@@H]1CN(Cc2cnc3c(c2)c2ncnn2c(=O)n3Cc2ccc(OC(F)F)cc2F)C[C@H](C)O1 [Example 106] | 100 to 1000 |
| COc1c(F)cc(Cn2c(=O)n3ncnc3c3cc(CN4C[C@@H](C)O[C@@H](C)C4)cnc32)cc1F [Example 107, 6-(3,5-Difluoro-4-methoxybenzyl)-9-(((2S,6R)-2,6-dimethylmorpholino)methyl)pyrido[3,2-e][1,2,4]triazolo[1,5-c]pyrimidin-5(6H)-one] | 100 to 1000 |
| COc1ccc(Cn2c(=O)n3ncnc3c3cc(CN4C[C@@H](C)O[C@@H](C)C4)cnc32)c(F)c1F [Example 108, 6-(2,3-Difluoro-4-methoxybenzyl)-9-(((2S,6R)-2,6-dimethylmorpholino)methyl)pyrido[3,2-e][1,2,4]triazolo[1,5-c]pyrimidin-5(6H)-one] | 100 to 1000 |
